{"source": "the supplement of paper PMC8728848", "test_in_all_cases": "glycan array binding signal (z-score within array); higher = stronger binding", "conditions_in_all_cases": "glycan notation: IUPAC condensed, linker removed", "key": {"Fuc(a1-2)Gal": {"target": "Fuc(a1-2)Gal", "procedure,_shortened": "(§1)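 The binding signal is a Z-score computed within each array and averaged over linkers. Arrays of the same protein sequence at different concentrations or buffers were also averaged together. Data originate from 3228 arrays in the Consortium for Functional Glycomics database, kept only where the protein sequence was available.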"}, "Fuc(a1-2)Gal(b1-3)GalNAc": {"target": "Fuc(a1-2)Gal(b1-3)GalNAc", "procedure,_shortened": "as §1"}, "[1]": {"target": "Fuc(a1-2)Gal(b1-3)GalNAc(a1-3)[Fuc(a1-2)]Gal(b1-4)Glc", "procedure,_shortened": "as §1"}, "[2]": {"target": "Fuc(a1-2)Gal(b1-3)GalNAc(a1-3)[Fuc(a1-2)]Gal(b1-4)GlcNAc", "procedure,_shortened": "as §1"}, "[3]": {"target": "Fuc(a1-2)Gal(b1-3)GalNAc(b1-3)Gal", "procedure,_shortened": "as §1"}, "[4]": {"target": "Fuc(a1-2)Gal(b1-3)GalNAc(b1-3)Gal(a1-4)Gal(b1-4)Glc", "procedure,_shortened": "as §1"}, "[5]": {"target": "Fuc(a1-2)Gal(b1-3)GalNAc(b1-4)[Neu5Ac(a2-3)]Gal(b1-4)Glc", "procedure,_shortened": "as §1"}, "Fuc(a1-2)Gal(b1-3)GlcNAc": {"target": "Fuc(a1-2)Gal(b1-3)GlcNAc", "procedure,_shortened": "as §1"}, "[6]": {"target": "Fuc(a1-2)Gal(b1-3)GlcNAc(b1-2)Man(a1-3)[Fuc(a1-2)Gal(b1-3)GlcNAc(b1-2)Man(a1-6)]Man(b1-4)GlcNAc(b1-4)GlcNAc", "procedure,_shortened": "as §1"}, "[7]": {"target": "Fuc(a1-2)Gal(b1-3)GlcNAc(b1-2)Man(a1-3)[Fuc(a1-2)Gal(b1-3)GlcNAc(b1-2)Man(a1-6)]Man(b1-4)GlcNAc(b1-4)[Fuc(a1-6)]GlcNAc", "procedure,_shortened": "as §1"}, "[8]": {"target": "Fuc(a1-2)Gal(b1-3)GlcNAc(b1-3)Gal(b1-4)Glc", "procedure,_shortened": "as §1"}, "[9]": {"target": "Fuc(a1-2)Gal(b1-3)GlcNAc(b1-3)GalNAc", "procedure,_shortened": "as §1"}, "[10]": {"target": "Fuc(a1-2)Gal(b1-3)GlcNAc(b1-3)[Fuc(a1-2)Gal(b1-3)GlcNAc(b1-6)]GalNAc", "procedure,_shortened": "as §1"}, "[11]": {"target": "Fuc(a1-2)Gal(b1-3)GlcNAc(b1-3)[Gal(b1-4)GlcNAc(b1-6)]Gal(b1-4)Glc", "procedure,_shortened": "as §1"}, "[12]": {"target": "Fuc(a1-2)Gal(b1-3)GlcNAc(b1-3)[Neu5Ac(a2-6)Gal(b1-4)GlcNAc(b1-6)]Gal(b1-4)Glc", "procedure,_shortened": "as §1"}, "[13]": {"target": "Fuc(a1-2)Gal(b1-3)GlcNAc6S", "procedure,_shortened": "as §1"}, "[14]": {"target": "Fuc(a1-2)Gal(b1-3)[Fuc(a1-4)]GlcNAc", "procedure,_shortened": "as §1"}, "[15]": {"target": "Fuc(a1-2)Gal(b1-3)[Fuc(a1-4)]GlcNAc(b1-2)Man(a1-3)[Fuc(a1-2)Gal(b1-3)[Fuc(a1-4)]GlcNAc(b1-2)Man(a1-3)]Man(b1-4)GlcNAc(b1-4)GlcNAc", "procedure,_shortened": "as §1"}, "[16]": {"target": "Fuc(a1-2)Gal(b1-3)[Fuc(a1-4)]GlcNAc(b1-2)Man(a1-3)[Fuc(a1-2)Gal(b1-3)[Fuc(a1-4)]GlcNAc(b1-2)Man(a1-6)]Man(b1-4)GlcNAc(b1-4)[Fuc(a1-6)]GlcNAc(b1-4)[Fuc(a1-6)]GlcNAc", "procedure,_shortened": "as §1"}, "[17]": {"target": "Fuc(a1-2)Gal(b1-3)[Fuc(a1-4)]GlcNAc(b1-3)[Fuc(a1-3)[Gal(b1-4)]GlcNAc(b1-6)]Gal(b1-4)Glc", "procedure,_shortened": "as §1"}, "[18]": {"target": "Fuc(a1-2)Gal(b1-3)[Fuc(a1-4)]GlcNAc(b1-3)[Gal(b1-4)GlcNAc(b1-6)]Gal(b1-4)Glc", "procedure,_shortened": "as §1"}, "Fuc(a1-2)Gal(b1-4)Glc": {"target": "Fuc(a1-2)Gal(b1-4)Glc", "procedure,_shortened": "as §1"}, "Fuc(a1-2)Gal(b1-4)Glc6S": {"target": "Fuc(a1-2)Gal(b1-4)Glc6S", "procedure,_shortened": "as §1"}, "Fuc(a1-2)Gal(b1-4)GlcNAc": {"target": "Fuc(a1-2)Gal(b1-4)GlcNAc", "procedure,_shortened": "as §1"}, "[19]": {"target": "Fuc(a1-2)Gal(b1-4)GlcNAc(b1-2)Man", "procedure,_shortened": "as §1"}, "[20]": {"target": "Fuc(a1-2)Gal(b1-4)GlcNAc(b1-2)Man(a1-3)[Fuc(a1-2)Gal(b1-4)GlcNAc(b1-2)Man(a1-6)]Man(b1-4)GlcNAc(b1-4)GlcNAc", "procedure,_shortened": "as §1"}, "[21]": {"target": "Fuc(a1-2)Gal(b1-4)GlcNAc(b1-2)Man(a1-3)[Fuc(a1-2)Gal(b1-4)GlcNAc(b1-2)Man(a1-6)]Man(b1-4)GlcNAc(b1-4)[Fuc(a1-6)]GlcNAc", "procedure,_shortened": "as §1"}, "[22]": {"target": "Fuc(a1-2)Gal(b1-4)GlcNAc(b1-2)[Fuc(a1-2)Gal(b1-4)GlcNAc(b1-4)]Man(a1-3)[Fuc(a1-2)Gal(b1-4)GlcNAc(b1-2)Man(a1-6)]Man(b1-4)GlcNAc(b1-4)GlcNAc", "procedure,_shortened": "as §1"}, "[23]": {"target": "Fuc(a1-2)Gal(b1-4)GlcNAc(b1-3)Gal(b1-4)GlcNAc", "procedure,_shortened": "as §1"}, "[24]": {"target": "Fuc(a1-2)Gal(b1-4)GlcNAc(b1-3)Gal(b1-4)GlcNAc(b1-2)Man(a1-3)[Fuc(a1-2)Gal(b1-4)GlcNAc(b1-3)Gal(b1-4)GlcNAc(b1-2)Man(a1-6)]Man(b1-4)GlcNAc(b1-4)GlcNAc", "procedure,_shortened": "as §1"}}, "note": "Some of the results follow."}
{"binder": "Pwp4 (Candida glabrata) (protein) MGSSHHHHHHSSGLVPRGSHMASVGNPITVSNVCSFPKNWHRTAGFRALTARLGIGIQSDSYKELLNYPGTFQLTTQQSSTTKPNFQISGLVGNIYGLTIVPSYLLVELTGYFVPPVSGEYTFSLEGSDDAAIIFIANPSTFKCGHVEDWPTAYDNDVTVTESIHATRTIYMIEGVAYPIRIAYYNGLSLGKLQASFTDPEGVKRVDWNGYIWRYDSCDTCSYV", "values": [{"measurement": "glycan array binding signal (z-score)", "setting": "Fuc(a1-2)Gal", "value": -0.516}, {"measurement": "glycan array binding signal (z-score)", "setting": "Fuc(a1-2)Gal(b1-3)GalNAc", "value": 0.041}, {"measurement": "glycan array binding signal (z-score)", "setting": "[1]", "value": -0.7}, {"measurement": "glycan array binding signal (z-score)", "setting": "[2]", "value": 0.36}, {"measurement": "glycan array binding signal (z-score)", "setting": "[3]", "value": 0.223}, {"measurement": "glycan array binding signal (z-score)", "setting": "[4]", "value": -0.514}, {"measurement": "glycan array binding signal (z-score)", "setting": "[5]", "value": -0.446}, {"measurement": "glycan array binding signal (z-score)", "setting": "Fuc(a1-2)Gal(b1-3)GlcNAc", "value": -0.913}, {"measurement": "glycan array binding signal (z-score)", "setting": "[6]", "value": 0.141}, {"measurement": "glycan array binding signal (z-score)", "setting": "[7]", "value": -0.308}, {"measurement": "glycan array binding signal (z-score)", "setting": "[8]", "value": -0.652}, {"measurement": "glycan array binding signal (z-score)", "setting": "[9]", "value": -0.453}, {"measurement": "glycan array binding signal (z-score)", "setting": "[10]", "value": -0.28}, {"measurement": "glycan array binding signal (z-score)", "setting": "[11]", "value": -0.496}, {"measurement": "glycan array binding signal (z-score)", "setting": "[12]", "value": -0.546}, {"measurement": "glycan array binding signal (z-score)", "setting": "[13]", "value": -0.411}, {"measurement": "glycan array binding signal (z-score)", "setting": "[14]", "value": -0.432}, {"measurement": "glycan array binding signal (z-score)", "setting": "[15]", "value": -0.045}, {"measurement": "glycan array binding signal (z-score)", "setting": "[16]", "value": 0.426}, {"measurement": "glycan array binding signal (z-score)", "setting": "[17]", "value": -0.715}, {"measurement": "glycan array binding signal (z-score)", "setting": "[18]", "value": -0.507}, {"measurement": "glycan array binding signal (z-score)", "setting": "Fuc(a1-2)Gal(b1-4)Glc", "value": -0.568}, {"measurement": "glycan array binding signal (z-score)", "setting": "Fuc(a1-2)Gal(b1-4)Glc6S", "value": -0.379}, {"measurement": "glycan array binding signal (z-score)", "setting": "Fuc(a1-2)Gal(b1-4)GlcNAc", "value": -0.001}, {"measurement": "glycan array binding signal (z-score)", "setting": "[19]", "value": -0.355}, {"measurement": "glycan array binding signal (z-score)", "setting": "[20]", "value": -0.263}, {"measurement": "glycan array binding signal (z-score)", "setting": "[21]", "value": 0.039}, {"measurement": "glycan array binding signal (z-score)", "setting": "[22]", "value": 1.93}, {"measurement": "glycan array binding signal (z-score)", "setting": "[23]", "value": 0.424}, {"measurement": "glycan array binding signal (z-score)", "setting": "[24]", "value": -0.108}]}
